Test results from patent US20150165067A1.

What was measured:
Experiment in all cases: cell-based or functional assay
[1] = target: human FGFR3 Y373C, endogenous on KMS-11 multiple myeloma cells (human), P22607
[2] = target: human FGFR3(IIIc) S249C on BaF3 cells (human), P22607
[3] = target: human FGFR3(IIIc) WT on BaF3 cells (human), P22607
[4] = target: human FGFR3(IIIc) K650E on BaF3 cells (human), P22607
[5] = target: human FGFR3 S249C, endogenous on UMUC-14 bladder tumor cells (human), P22607
[6] = target: human FGFR3 K650E, endogenous on OPM-2 multiple myeloma cells (human), P22607
Sequence of human FGFR3 K650E, endogenous on OPM-2 multiple myeloma cells (human), P22607 (P22607 other isoform, or with tags, fused parts or gaps K650E K650E): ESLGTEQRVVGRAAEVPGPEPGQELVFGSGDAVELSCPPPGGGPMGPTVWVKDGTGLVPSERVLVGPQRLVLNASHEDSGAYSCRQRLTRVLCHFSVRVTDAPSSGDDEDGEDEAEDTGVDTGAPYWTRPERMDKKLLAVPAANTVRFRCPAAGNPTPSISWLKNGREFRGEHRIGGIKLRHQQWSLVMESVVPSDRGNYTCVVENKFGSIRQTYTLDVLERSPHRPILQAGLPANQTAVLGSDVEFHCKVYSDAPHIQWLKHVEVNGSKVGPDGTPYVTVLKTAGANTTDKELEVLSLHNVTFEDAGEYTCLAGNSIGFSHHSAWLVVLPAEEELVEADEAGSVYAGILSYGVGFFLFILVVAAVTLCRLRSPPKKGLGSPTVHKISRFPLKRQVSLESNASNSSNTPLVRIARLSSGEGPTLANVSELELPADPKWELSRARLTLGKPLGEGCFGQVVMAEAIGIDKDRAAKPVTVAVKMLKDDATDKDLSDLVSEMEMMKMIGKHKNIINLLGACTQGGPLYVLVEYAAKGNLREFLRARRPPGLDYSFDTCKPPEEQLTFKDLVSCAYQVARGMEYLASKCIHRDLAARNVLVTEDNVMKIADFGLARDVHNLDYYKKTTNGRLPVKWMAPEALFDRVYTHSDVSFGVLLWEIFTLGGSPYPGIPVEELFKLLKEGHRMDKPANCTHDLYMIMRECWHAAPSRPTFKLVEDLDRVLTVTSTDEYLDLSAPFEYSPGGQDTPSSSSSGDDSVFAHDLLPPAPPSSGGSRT

Sequence of human FGFR3 Y373C, endogenous on KMS-11 multiple myeloma cells (human), P22607 (P22607 other isoform, or with tags, fused parts or gaps Y373C Y373C): as the sequence (P22607 other isoform, or with tags, fused parts or gaps K650E K650E) above
Sequence of human FGFR3(IIIc) WT on BaF3 cells (human), P22607 (P22607 23-806): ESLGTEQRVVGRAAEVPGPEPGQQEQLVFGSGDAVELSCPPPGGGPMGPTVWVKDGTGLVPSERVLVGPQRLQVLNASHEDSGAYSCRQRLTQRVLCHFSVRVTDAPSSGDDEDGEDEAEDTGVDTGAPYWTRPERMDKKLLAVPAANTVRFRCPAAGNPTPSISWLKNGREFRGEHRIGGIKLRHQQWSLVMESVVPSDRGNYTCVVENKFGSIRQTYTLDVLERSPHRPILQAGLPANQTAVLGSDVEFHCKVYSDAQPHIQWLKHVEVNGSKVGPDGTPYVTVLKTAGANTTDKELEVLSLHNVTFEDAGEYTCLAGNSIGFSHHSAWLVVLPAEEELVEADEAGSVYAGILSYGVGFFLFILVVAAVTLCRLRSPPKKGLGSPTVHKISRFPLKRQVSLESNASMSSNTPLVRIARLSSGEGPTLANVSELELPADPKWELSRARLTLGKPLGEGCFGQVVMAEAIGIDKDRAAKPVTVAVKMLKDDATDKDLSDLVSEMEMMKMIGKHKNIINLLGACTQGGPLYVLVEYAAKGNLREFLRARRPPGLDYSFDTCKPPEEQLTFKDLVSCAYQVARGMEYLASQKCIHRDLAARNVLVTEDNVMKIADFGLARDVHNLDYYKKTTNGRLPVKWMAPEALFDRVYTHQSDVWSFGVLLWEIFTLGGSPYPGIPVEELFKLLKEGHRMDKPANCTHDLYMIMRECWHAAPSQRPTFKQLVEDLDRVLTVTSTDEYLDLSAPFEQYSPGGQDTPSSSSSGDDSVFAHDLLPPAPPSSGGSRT
Sequence of human FGFR3(IIIc) S249C on BaF3 cells (human), P22607 (P22607 23-806 S249C): as the sequence (P22607 23-806) above, with S227C counted along it
Sequence of human FGFR3(IIIc) K650E on BaF3 cells (human), P22607 (P22607 23-806 K650E): as the sequence (P22607 23-806) above, with K628E counted along it
Sequence of human FGFR3 S249C, endogenous on UMUC-14 bladder tumor cells (human), P22607 (P22607 other isoform, or with tags, fused parts or gaps S249C S249C): as the sequence (P22607 other isoform, or with tags, fused parts or gaps K650E K650E) above

Binder	cytotoxicity IC50 on KMS-11 cells, Antibody 1 mixed with a constant amount of conjugated Fab (10 nM), Cell Titer-Glo, 96 h [1]	IC50 for neutralizing FGF1 (5.16 nM)-induced 3H-thymidine incorporation in BaF3 cells [2]	IC50 for neutralizing FGF9 (4.34 nM)-induced 3H-thymidine incorporation in BaF3 cells [2]	IC50 for neutralizing FGF1 (5.16 nM)-induced 3H-thymidine incorporation in BaF3 cells [3]	IC50 for neutralizing FGF9 (4.34 nM)-induced 3H-thymidine incorporation in BaF3 cells [3]	IC50 for neutralizing FGF1 (5.16 nM)-induced 3H-thymidine incorporation in BaF3 cells [4]	IC50 for neutralizing FGF9 (4.34 nM)-induced 3H-thymidine incorporation in BaF3 cells [4]	Cytotoxicity Conjugate 1 IC50, KMS-11 (multiple myeloma) cells, Cell Titer-Glo, 96 h [1]	cytotoxicity IC50 (nM), KMS-11 cells [1]	cytotoxicity IC50 (nM), transfected Baf3-FGFR3(IIIc) cells [3]	Cytotoxicity Conjugate 1 IC50, UMUC-14 (bladder) cells, Cell Titer-Glo, 96 h [5]	cytotoxicity IC50 (nM), OPM-2 cells [6]
Antibody 1 (antibody, human IgG1, lambda) heavy: EVQLVQSGAEVKKPGASVKVSCKASGYMFTSYGISWVRQAPGQGLEWMGWVSTYNGDTNYAQKFQGRVTVTTDTSTSTAYMELRSLRSEDTAVYYCARVLGYYDSIDGYYYGMDVWGQGTTVTVSSASTKGPSVFPLAPSSKSTSGGTAALGCLVKDYFPEPVTVSWNSGALTSGVHTFPAVLQSSGLYSLSSVVTVPSSSLGTQTYICNVNHKPSNTKVDKRV[human IgG1 Fc skipped] light: QSVLTQPPSLSVAPGKTATFTCGGNNIGDKSVHWYRQKPGQAPVLVMYLDTERPSGIPERMSGSNFGNTATLTITRVEAGDEADYYCQVWDSGSDHVVFGGGTKLTVLGQPKAAPSVTLFPPSSEELQANKATLVCLISDFYPGAVTVAWKADSSPVKAGVETTTPSKQSNNKYAASSYLSLTPEQWKSHRSYSCQVTHEGSTVEKTVAPAECS	0.11 nM	30.4 nM	1.5 nM	11.9 nM	1.41 nM	8.11 nM	2.07 nM					
Conjugate 1 (antibody, human IgG1, lambda, here or on the partner: DM4 attached through the sulfo-SPDB linker to available lysine residues (positions not given); DAR 3.5 ± 0.5 for the whole antibody) heavy: EVQLVQSGAEVKKPGASVKVSCKASGYMFTSYGISWVRQAPGQGLEWMGWVSTYNGDTNYAQKFQGRVTVTTDTSTSTAYMELRSLRSEDTAVYYCARVLGYYDSIDGYYYGMDVWGQGTTVTVSSASTKGPSVFPLAPSSKSTSGGTAALGCLVKDYFPEPVTVSWNSGALTSGVHTFPAVLQSSGLYSLSSVVTVPSSSLGTQTYICNVNHKPSNTKVDKRV[human IgG1 Fc skipped] light: QSVLTQPPSLSVAPGKTATFTCGGNNIGDKSVHWYRQKPGQAPVLVMYLDTERPSGIPERMSGSNFGNTATLTITRVEAGDEADYYCQVWDSGSDHVVFGGGTKLTVLGQPKAAPSVTLFPPSSEELQANKATLVCLISDFYPGAVTVAWKADSSPVKAGVETTTPSKQSNNKYAASSYLSLTPEQWKSHRSYSCQVTHEGSTVEKTVAPAECS								0.04 nM	0.24 nM	5 nM	0.5 nM	1.8 nM
